# In PubChem BioAssay AID463173 (ICCB-Longwood Screening Facility, Harvard Medical School, 2010):
# Among all 52,000 compounds or so, about 4,300 (8.3%) were called active. Cut-off read from the data, not from the text of the source: active = survival mostly below about 52% (no sharp cut-off); inactive = mostly above about 56%. The list shows a part of the results.
# Tested on: DeltatarO mutant
# Assay: S. aureus survival, RN4220 and DeltatarO strains – OD600, teichoic acid synthesis inhibitors, primary screen (AID 463173)
# Conditions: S. aureus RN4220 wild type/DeltatarO growth, OD600, 18 h, hits give low values, screened at 18.75 µg/mL (by protocol)
row,Compound,survival
1,CC(=O)Nc1ccc(C)cc1-c1nc2ccccc2n(Cc2cccc(Br)c2)c1=O,inactive: 69%
2,CCN(CC)S(=O)(=O)c1cccc(C(=O)Nc2ccccc2)c1,inactive: 102%
3,Cc1ccccc1-c1nnc(SCC(=O)N2CCCc3ccccc32)o1,active: 9%
4,COc1ccc(N2CCN(C(=O)c3c(C)oc4nc(C)nc(N5CCCC5)c34)CC2)cc1,inactive: 94%
5,Cc1ccc(N(C)S(=O)(=O)c2c(-c3ccccc3)csc2C(=O)O)cc1,inactive: 59%
6,CCCCCn1c(Br)nc2c1c(=O)n(CC(N)=O)c(=O)n2C,inactive: 80%
7,Cc1cccc(OCc2nnc(SC(C)C(=O)O)n2Cc2ccccc2)c1 (configuration not stated),inactive: 103%
8,Cc1cc2nc(-c3cccc(NC(=O)COc4ccc(C(C)C)cc4)c3)oc2cc1C,inactive: 50%
9,COc1ccc(Cl)cc1NC(=O)c1cc2ccccn2n1,inactive: 124%
10,Cc1nc2nncn2c(Nc2ccc(F)cc2)c1C,inactive: 77%
11,COc1cccc(-n2c(=O)c3sccc3n(Cc3cc(=O)n4cc(Cl)ccc4n3)c2=O)c1,inactive: 82%
12,CCC(=O)N1CCc2cc(S(=O)(=O)NCCC(=O)NCc3ccc(OC)cc3)ccc21,inactive: 92%
13,O=c1cc(CSc2nnc(COc3ccccc3)o2)c2ccccc2[nH]1,inactive: 107%
14,CCCNC(=O)c1c(NC(=O)c2ccccc2F)sc2c1CCCCC2,inactive: 79%
15,Cc1nc(-c2ccc(S(=O)(=O)Nc3ccc(OC(F)(F)F)cc3)cc2)co1,inactive: 78%
16,Cc1ccc(NC(=O)N2CCC(CN3CCCCCC3)CC2)c(Cl)c1,inactive: 84%
17,CC(C)c1ccc(N2C(=O)CSC23C(=O)N(Cc2ccccc2F)c2ccccc23)cc1 (configuration not stated),inactive: 79%
18,Cc1ccc(-c2nc(C(=O)Nc3cccc(C#N)c3)c3n2CCCCC3)cc1,inactive: 88%
19,Cc1cccc(C(=O)OCc2cc(=O)n3nc(C4CC4)sc3n2)c1,inactive: 97%

row,Compound,survival
1,COc1ccc(-c2nc(SCC(=O)Nc3ccc4c(c3)OCO4)c(-c3ccc(F)cc3)[nH]2)cc1OC,inactive: 86%
2,O=C1c2ccccc2C(=O)C1(c1ccccc1)N1CCN(c2cccc(C(F)(F)F)c2)CC1,inactive: 96%
3,CCOc1ccccc1NC(=O)CCc1nc(-c2cccc(C)c2)no1,inactive: 73%
4,CC(C)Oc1ccc(CNS(=O)(=O)c2csc(C(N)=O)c2)cc1,inactive: 101%
5,Cc1ccc2c(c1)N(CC(=O)NCCCN1CCCCC1)C(=O)c1cccnc1O2,inactive: 68%
6,COc1ccccc1CNC(=O)CCCN1C(=O)CCn2nc(-c3cn(C)c4ccccc34)cc21,inactive: 89%
7,Cc1cc(NS(=O)(=O)c2ccc(NC(=S)NC(=O)c3ccccc3)cc2)no1,inactive: 79%
8,CC(C)C(=O)Nc1c(C(=O)N2CCN(c3ccccc3F)CC2)oc2ccccc12,inactive: 58%
9,Fc1ccc(C(c2nnc(-c3ccccc3)o2)N2CCN(c3ccccc3)CC2)c(Cl)c1 (configuration not stated),inactive: 84%
10,Cc1ccc(C(=O)Nc2cc3cc(Cl)ccc3oc2=O)cc1,inactive: 68%
11,CCCn1c(N2CCN(Cc3ccc(Cl)cc3)CC2)nc2ccccc21,inactive: 91%
12,Cc1ccc(-c2nc(CCNC(=O)C(=O)Nc3ccc(F)cc3F)cs2)cc1,inactive: 91%
13,CCOC(=O)c1ccc(NC(=O)C(=O)NCCc2ccc(OC)cc2)cc1,inactive: 74%
14,Cc1ccc(C)c(NC(=O)Cn2c(-c3nonc3N)nc3ccccc32)c1,inactive: 71%
15,CCC(CC)N1CCN(S(=O)(=O)c2ccc(NC(C)=O)cc2)CC1,inactive: 83%
16,COc1ccc2oc(=O)c(C(=O)N3CCN(c4cc(Cl)ccc4Cl)CC3)cc2c1,active: 48%
17,COc1ccccc1N1CCN(C(=O)c2cnn(C(C)(C)C)c2C2CCN(C(=O)OC(C)(C)C)CC2)CC1,inactive: 120%
18,CCOc1ccc2c(O)csc2c1,inactive: 90%
19,CCOc1ccc(S(=O)(=O)N(C(C)=O)c2ccc3oc(C)c(C(=O)OC)c3c2)cc1,inactive: 162%

row,Compound,survival
1,COc1cc(Cl)c(C)cc1NC(=O)c1nn(-c2ccc(C)cc2)c(=O)n(C)c1=O,inactive: 55%
2,Cc1ccc(CSc2nc3ccncc3n2Cc2nc(-c3ccc(Cl)cc3)oc2C)cc1,inactive: 63%
3,CCOc1ccc(N2CC(NC(=O)c3cc4ccccc4o3)CC2=O)cc1 (configuration not stated),inactive: 94%
4,COC(=O)CSc1nc(-c2ccccc2)cc(C(F)(F)F)n1,inactive: 88%
5,COc1cccc(NC(=O)CSc2c(C)cnc3c2c(=O)n(C)c(=O)n3C)c1,inactive: 115%
6,CCCOC(=O)c1c(NC(=O)c2cc3nc(-c4ccc(OC)cc4)cc(C(F)(F)F)n3n2)sc2c1CCCC2,inactive: 119%
7,CCOC(=O)c1ccc(NC(=O)c2nsc3ccccc23)cc1,inactive: 60%
8,CN1CCc2nc3sc(C(=O)Nc4c(F)cccc4F)c(N)c3cc2C1,inactive: 153%
9,CCOc1ccc(NC(=O)Cn2c(=O)c(CNc3ccc(OC)cc3)cc3ccc(OC)cc32)cc1,inactive: 71%
10,Cc1ccc(-c2cnc(NCc3c(F)cccc3Cl)n2C)cc1,active: -4%
11,CCOC(=O)c1cc(S(=O)(=O)N2CCN(c3cc(Cl)ccc3C)CC2)[nH]n1,inactive: 109%
12,COc1ccc(C(=O)Nc2nc3nc(C)c(Cl)c(=O)n3[nH]2)cc1,inactive: 100%
13,COc1ccc(OC)c(NC(=O)C(NS(=O)(=O)c2ccc3c(c2)CCCC(=O)N3)C(C)C)c1 (configuration not stated),inactive: 78%
14,COc1cccc(NC(=O)c2nnn(Cc3cccc(C(F)(F)F)c3)c2N)c1,inactive: 67%
15,COc1ccc(NS(=O)(=O)c2ccc3c(c2)oc(=O)n3C)cc1Cl,inactive: 86%
16,COc1ccc(OC)c(S(=O)(=O)Nc2ccc3[nH]c(=O)[nH]c3c2)c1,inactive: 79%
17,Cc1cccc(CN2C(=O)c3ccccc3S(=O)(=O)c3ccc(C(=O)N4CCCC4)cc32)c1,inactive: 72%
18,CCc1ccc(OCC(=O)Nc2c(C(=O)c3ccccc3)oc3ccccc23)cc1,inactive: 66%
19,CN(C)c1ccc(C(C(=O)NCC2CCCO2)N(C(=O)Cn2nnc3ccccc32)c2ccc3c(c2)OCO3)cc1 (configuration not stated),inactive: 90%
